Data reported in publication PMC4534575, “The RNA Helicase DHX34 Activates NMD by Promoting a Transition from the Surveillance to the Decay-Inducing Complex” (Cell Reports, 2014).
Residue numbers refer to the chain shown, from its start. No constants are given. Whether binding was seen depends on the method and setting. In cells and extracts the contact can be indirect. Some entries that bind do so weakly or less than the wild type. For some assays here: Where a sequence is shown, tags or fusion partners need not be part of it. Each block holds one molecule with its values, some of them ahead of it.

Protein sequences, listed by entry. Tags and fused reporters are not part of them.
UniProt Q96Q15: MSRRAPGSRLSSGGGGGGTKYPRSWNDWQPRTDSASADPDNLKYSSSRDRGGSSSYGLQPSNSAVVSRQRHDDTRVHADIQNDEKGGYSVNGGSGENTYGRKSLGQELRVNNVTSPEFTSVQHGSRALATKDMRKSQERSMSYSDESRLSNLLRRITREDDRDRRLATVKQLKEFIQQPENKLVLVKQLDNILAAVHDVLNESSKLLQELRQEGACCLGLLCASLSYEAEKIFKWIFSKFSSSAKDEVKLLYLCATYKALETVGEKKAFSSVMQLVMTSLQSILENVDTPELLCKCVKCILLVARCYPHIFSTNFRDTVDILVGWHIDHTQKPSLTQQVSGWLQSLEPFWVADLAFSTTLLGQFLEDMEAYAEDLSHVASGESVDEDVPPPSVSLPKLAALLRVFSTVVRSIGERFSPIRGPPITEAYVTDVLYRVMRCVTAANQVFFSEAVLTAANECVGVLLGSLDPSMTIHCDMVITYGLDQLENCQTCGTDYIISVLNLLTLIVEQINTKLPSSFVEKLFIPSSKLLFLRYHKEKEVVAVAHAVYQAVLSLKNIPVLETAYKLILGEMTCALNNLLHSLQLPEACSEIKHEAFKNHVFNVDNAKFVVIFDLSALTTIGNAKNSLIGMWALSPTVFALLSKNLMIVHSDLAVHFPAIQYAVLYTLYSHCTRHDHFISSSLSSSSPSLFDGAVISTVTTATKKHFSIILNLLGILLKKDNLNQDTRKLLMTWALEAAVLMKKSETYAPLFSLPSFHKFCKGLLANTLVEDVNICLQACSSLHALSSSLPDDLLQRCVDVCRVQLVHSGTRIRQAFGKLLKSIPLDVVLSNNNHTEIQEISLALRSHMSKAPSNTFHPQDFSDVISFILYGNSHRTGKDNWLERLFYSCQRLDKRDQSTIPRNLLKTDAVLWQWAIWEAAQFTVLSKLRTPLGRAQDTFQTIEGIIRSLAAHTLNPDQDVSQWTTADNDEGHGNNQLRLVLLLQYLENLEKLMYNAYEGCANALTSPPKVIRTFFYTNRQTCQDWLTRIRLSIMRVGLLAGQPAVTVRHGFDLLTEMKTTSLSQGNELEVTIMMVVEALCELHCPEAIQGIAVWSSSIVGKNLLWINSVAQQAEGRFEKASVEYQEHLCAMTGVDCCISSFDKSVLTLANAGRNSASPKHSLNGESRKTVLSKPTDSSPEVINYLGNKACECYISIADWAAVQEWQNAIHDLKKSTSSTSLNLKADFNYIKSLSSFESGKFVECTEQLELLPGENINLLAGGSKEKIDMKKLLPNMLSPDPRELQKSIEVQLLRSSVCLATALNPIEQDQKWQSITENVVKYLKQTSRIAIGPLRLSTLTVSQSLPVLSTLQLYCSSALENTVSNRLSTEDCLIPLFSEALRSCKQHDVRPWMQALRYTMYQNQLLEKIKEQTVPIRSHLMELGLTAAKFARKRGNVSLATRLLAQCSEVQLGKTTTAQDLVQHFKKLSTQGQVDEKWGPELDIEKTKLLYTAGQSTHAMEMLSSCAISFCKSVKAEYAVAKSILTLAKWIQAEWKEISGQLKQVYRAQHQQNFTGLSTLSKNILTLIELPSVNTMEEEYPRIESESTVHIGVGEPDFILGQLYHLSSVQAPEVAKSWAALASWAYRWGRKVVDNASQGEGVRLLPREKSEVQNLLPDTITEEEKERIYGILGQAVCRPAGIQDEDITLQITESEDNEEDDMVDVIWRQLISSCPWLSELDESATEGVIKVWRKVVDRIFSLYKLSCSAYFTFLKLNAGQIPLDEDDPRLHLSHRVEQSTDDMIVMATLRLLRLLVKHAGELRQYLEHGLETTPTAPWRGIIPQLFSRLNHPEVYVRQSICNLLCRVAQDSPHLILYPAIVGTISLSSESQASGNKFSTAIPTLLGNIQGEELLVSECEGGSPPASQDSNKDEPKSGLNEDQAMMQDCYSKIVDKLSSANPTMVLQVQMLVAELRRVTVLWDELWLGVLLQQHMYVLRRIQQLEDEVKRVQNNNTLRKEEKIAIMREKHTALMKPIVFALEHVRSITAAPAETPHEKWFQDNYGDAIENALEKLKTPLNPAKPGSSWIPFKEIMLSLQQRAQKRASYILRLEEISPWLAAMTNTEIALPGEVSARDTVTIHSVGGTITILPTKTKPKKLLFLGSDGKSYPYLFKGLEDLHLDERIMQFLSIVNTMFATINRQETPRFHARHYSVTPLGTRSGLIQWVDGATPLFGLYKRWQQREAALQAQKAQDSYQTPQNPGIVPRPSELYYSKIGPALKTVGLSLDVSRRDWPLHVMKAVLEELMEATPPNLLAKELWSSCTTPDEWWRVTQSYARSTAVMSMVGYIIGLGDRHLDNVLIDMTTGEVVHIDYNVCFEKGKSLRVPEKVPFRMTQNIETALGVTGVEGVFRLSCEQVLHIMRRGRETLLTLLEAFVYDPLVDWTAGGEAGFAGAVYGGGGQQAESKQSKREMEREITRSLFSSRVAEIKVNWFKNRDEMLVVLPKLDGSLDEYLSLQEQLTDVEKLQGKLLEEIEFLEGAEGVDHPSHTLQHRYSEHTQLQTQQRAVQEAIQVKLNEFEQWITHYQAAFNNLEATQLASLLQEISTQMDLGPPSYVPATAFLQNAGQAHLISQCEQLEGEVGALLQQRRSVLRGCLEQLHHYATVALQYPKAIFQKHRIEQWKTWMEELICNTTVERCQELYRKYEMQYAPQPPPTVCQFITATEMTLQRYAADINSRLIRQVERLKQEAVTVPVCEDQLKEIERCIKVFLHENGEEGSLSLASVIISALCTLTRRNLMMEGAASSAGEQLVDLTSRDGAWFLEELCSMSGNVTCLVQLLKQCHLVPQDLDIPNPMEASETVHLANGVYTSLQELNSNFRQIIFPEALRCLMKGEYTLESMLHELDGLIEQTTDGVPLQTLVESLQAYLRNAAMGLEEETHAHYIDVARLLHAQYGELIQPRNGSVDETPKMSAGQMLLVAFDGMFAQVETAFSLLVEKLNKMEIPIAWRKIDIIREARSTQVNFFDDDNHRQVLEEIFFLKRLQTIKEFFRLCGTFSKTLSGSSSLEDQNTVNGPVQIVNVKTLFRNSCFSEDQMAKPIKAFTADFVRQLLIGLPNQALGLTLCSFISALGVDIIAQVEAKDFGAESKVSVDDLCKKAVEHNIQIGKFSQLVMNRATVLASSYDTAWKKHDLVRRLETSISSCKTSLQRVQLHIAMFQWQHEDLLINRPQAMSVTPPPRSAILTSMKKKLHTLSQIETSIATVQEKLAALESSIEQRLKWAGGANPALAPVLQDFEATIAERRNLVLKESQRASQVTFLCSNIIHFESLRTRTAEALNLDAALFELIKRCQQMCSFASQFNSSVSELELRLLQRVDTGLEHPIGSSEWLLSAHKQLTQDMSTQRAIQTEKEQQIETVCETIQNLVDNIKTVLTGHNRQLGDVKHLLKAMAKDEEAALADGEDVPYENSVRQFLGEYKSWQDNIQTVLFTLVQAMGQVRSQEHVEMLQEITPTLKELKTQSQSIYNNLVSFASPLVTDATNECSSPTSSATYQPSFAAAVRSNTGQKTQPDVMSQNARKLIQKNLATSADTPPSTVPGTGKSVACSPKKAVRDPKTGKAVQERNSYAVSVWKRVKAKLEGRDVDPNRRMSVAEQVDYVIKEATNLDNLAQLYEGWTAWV

Columns and labels:
[1] = target: T1, T7-DHX34 D279A (human) (UniProt Q14147); experiment: co-IP; IP of transiently transfected T7-DHX34 (wild-type or mutants) from HEK293T lysate, in the presence of RNase A (Figure 3B); endogenous partners by western blot
T1 sequence: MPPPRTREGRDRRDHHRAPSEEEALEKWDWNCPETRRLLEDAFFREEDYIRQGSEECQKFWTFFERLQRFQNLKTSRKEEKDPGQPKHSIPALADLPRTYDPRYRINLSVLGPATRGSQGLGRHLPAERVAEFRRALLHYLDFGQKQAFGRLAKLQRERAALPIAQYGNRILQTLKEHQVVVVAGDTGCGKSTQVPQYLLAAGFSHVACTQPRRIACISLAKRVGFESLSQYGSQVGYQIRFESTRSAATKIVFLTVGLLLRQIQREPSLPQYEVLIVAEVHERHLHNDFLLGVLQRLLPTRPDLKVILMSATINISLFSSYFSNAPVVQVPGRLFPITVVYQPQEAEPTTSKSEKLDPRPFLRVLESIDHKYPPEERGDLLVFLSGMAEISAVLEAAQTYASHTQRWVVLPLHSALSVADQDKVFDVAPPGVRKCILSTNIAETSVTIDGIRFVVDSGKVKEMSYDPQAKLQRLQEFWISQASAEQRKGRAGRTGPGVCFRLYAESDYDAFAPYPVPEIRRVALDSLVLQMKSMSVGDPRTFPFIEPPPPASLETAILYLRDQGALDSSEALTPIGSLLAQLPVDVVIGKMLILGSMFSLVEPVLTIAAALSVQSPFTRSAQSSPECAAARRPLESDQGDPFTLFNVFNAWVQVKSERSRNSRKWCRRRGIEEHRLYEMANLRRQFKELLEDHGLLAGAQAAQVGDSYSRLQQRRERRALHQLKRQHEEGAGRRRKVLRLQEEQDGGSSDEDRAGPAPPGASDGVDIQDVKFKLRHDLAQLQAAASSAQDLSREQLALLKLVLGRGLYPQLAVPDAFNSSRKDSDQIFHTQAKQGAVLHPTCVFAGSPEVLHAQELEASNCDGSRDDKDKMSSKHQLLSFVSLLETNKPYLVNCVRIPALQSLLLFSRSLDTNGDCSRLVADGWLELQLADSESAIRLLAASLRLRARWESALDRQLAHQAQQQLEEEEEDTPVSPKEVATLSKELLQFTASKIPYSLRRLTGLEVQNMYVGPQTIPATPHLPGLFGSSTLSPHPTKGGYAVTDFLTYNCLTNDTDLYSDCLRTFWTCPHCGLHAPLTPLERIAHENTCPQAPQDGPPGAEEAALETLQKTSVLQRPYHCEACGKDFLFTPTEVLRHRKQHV

[2] = target: T2, FLAG-UPF1 LECY181-184VRVD (human) (UniProt Q92900); experiment: co-IP; anti-FLAG IP from HEK293T cells cotransfected with FLAG-UPF1 (wild-type or mutants) and T7-DHX34 (wild-type or ATPase mutants); RNase A in Figure 3C; T7-DHX34 by western blot
T2 sequence: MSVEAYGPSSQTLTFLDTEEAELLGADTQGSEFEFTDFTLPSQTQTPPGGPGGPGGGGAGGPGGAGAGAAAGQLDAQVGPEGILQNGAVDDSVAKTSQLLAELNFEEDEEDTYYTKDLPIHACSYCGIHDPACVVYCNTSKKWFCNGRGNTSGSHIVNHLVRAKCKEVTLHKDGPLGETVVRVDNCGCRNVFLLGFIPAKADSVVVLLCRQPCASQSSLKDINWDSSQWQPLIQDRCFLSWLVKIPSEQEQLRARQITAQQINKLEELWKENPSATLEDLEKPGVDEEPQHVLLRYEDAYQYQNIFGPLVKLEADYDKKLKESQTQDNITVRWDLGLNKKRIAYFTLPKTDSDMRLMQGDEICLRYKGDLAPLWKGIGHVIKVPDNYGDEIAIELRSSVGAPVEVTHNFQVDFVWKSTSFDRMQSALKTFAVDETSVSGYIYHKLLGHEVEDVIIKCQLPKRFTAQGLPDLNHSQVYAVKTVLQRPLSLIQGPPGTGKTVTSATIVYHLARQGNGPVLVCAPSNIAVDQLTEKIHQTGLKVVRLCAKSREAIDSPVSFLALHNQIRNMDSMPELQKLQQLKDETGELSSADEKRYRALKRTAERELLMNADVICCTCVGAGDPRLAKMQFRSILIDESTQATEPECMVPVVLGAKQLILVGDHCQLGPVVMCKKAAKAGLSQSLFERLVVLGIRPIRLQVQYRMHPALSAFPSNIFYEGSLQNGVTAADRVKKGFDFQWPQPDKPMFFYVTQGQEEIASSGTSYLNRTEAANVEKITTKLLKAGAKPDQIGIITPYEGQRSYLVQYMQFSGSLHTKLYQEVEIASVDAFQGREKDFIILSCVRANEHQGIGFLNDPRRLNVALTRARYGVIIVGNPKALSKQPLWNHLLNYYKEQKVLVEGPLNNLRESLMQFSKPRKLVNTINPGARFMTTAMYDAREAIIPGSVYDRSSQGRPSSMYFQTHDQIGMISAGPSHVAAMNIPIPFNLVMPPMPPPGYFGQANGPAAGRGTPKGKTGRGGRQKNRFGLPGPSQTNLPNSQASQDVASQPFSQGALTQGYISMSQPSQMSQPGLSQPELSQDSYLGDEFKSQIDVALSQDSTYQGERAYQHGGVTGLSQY

binding [1]: binds
Molecule: SMG1 (from UniProt Q96Q15 1-3661)

binding [2]: binds
B1: T7-DHX34 (wild-type) (protein, UniProt Q14147 1-1143)
chain: T1 sequence with A279D
